Experimental data published in PubChem BioAssay AID686978 (National Center for Advancing Translational Sciences (NCATS), 2013).
The campaign covered roughly 420,000 compounds. About 64,000 (15%) were called active. This list was built around the results that the source calls inconclusive (neither active nor inactive); the mix of calls is not that of the screen. Calls follow the shape of the dose curve; as a rule, active = well fitted inhibition curve with a large enough effect; inconclusive = small, poorly fitted or top-dose-only effect; inactive = flat fitted curve, though single readings scatter. No potency is given beside an inconclusive call; the fits are too rough.

test: qHTS for Inhibitors of human tyrosyl-DNA phosphodiesterase 1 (TDP1): qHTS in cells in absence of CPT; settings: DT40 Tdp1-/- hTDP1 cells, no CPT, ATP luminescence, 48 h; activity change, negative = growth inhibition: at 46.2 µM (top of the series) unless noted; also: nearly all actives have a fitted effect of over 55% in size
Procedure, shortened: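 DT40 Tdp1-/-;hTDP1 cells, no CPT (DMSO vehicle only), 400 cells/well; compounds pin-transferred; ≥48 hr, 37 °C; CellTiter-Glo 30 min RT dark, luminescence read.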
% is scaled to controls: 0 for no effect and ±100 for the full control effect; potency is read from the fitted curve at half-maximal effect; tags tell the direction and shape of the fitted curve.

Row | SMILES | activity change, negative = growth inhibition | Potency
1 | COc1ccc(CNC(=O)CSc2ncn[nH]2)cc1 | inconclusive: -30.3% [inhibitor] | –
2 | COc1ccc2[nH]c(C(=O)O)c(NS(=O)(=O)c3ccc(C)c(C)c3)c2c1 | inactive: 16.3% | –
3 | Cn1ncc(Cl)c1C(=O)N1CCN(S(=O)(=O)c2ccc(Cl)s2)CC1 | inactive: -28.3% | –
4 | CCOc1cc(/C=C/c2ccc3cccc([N+](=O)[O-])c3n2)cc(Cl)c1O | – | inconclusive [inhibitor, single point]
5 | N#Cc1ccc(CSc2nnc(-c3ccccn3)n2-c2ccc(Cl)cc2)cc1 | – | inconclusive [inhibitor, single point]
6 | CCCn1c2ccccc2c2cnn(CC(=O)NC3CCCCC3C)c(=O)c21 (configuration not stated) | – | active: 18.4 µM
7 | O=C(O)C(NC(=O)c1ccccc1)=C(Cl)Cl | inactive: -1.22% | –
8 | Cc1cccc(C)c1Nc1c(-c2ccc(Cl)s2)nc2ncccn12 | – | inconclusive [inhibitor, single point]
9 | CCOc1cc(/C=N/NC(=O)CNc2cccc(C)c2)ccc1OC(=O)c1ccccc1 | – | active: 18.4 µM
10 | COc1ccccc1CNC(=O)/C=C/c1ccc(S(=O)(=O)N2CCOCC2)cc1 | – | inconclusive [inhibitor, single point]
11 | COc1ccc2oc(C(=O)Nc3ccc(S(=O)(=O)N(C)C4CCN(C)CC4)cc3)c(C)c2c1 | – | active: 18.4 µM
12 | CNc1c(NS(=O)(=O)c2ccc(CC(C)C)cc2)c(=O)oc2ccccc12 | inactive: -10.4% | –
13 | COc1ccc(C(=O)CSc2nnc(-c3ccco3)n2CC2CCCO2)cc1 (configuration not stated) | – | inconclusive [inhibitor, partial curve, poor fit]
14 | COCC(C)OC(=O)C(C#N)c1nc2ccccc2nc1N1CCN(Cc2ccccc2)CC1 (configuration not stated) | – | inconclusive [inhibitor, single point]
15 | CC(C)Oc1ccc(S(=O)(=O)N2CCOCC2)cc1NC(=O)CC1CC2CCC1C2 (configuration not stated) | – | inconclusive [inhibitor, single point]
16 | O=C(Nc1ccccc1C(=O)OCc1nnc(-c2ccccc2)o1)c1ccco1 | inactive: -11.3% | –
17 | Cc1ccc(S(=O)(=O)N2CCOCC2)cc1NC(=O)CN1C(=O)NC(C)(c2ccc(Cl)cc2Cl)C1=O (configuration not stated) | – | inconclusive [inhibitor, single point]
18 | N#Cc1ccc(Cl)cc1NC(=O)CNc1cccc(S(=O)(=O)N2CCCC2)c1 | – | inconclusive [inhibitor, partial curve]
19 | O=C(N/N=C/c1ccc(-c2cccc([N+](=O)[O-])c2)o1)c1ccccc1O | – | inconclusive [inhibitor, single point]
20 | CCN(CC)C(=O)c1sc(NC(=O)c2ccco2)c(C#N)c1C | inconclusive: -31.9% [inhibitor] | –
21 | CCn1c(SCC(=O)Nc2ccc(F)cc2)nc2ccccc2c1=O | inconclusive: -35% [inhibitor] | –
22 | NC(=O)c1cc2ccc(O)cc2oc1=NCc1ccccc1 | – | inconclusive [inhibitor, partial curve]
23 | Cc1ccc(C)c(CSCc2nc3ccccc3[nH]2)c1 | – | inconclusive [inhibitor, single point]

Row | SMILES | activity change, negative = growth inhibition | Potency
24 | COC(=O)/C(N=Nc1cccc(C(F)(F)F)c1)=C(\C)O | – | inconclusive [inhibitor, single point]
25 | COc1cc(CNc2ncnc3c2ncn3[C@H]2CN(Cc3ccc(Cl)cc3)C[C@@H](CO)O2)cc(OC)c1OC | – | active: 16.4 µM
26 | CC(C)C[C@H]1CN(CCCC[C@@H]2CNC(=O)C(=O)N2Cc2ccccc2)C(=O)C(=O)N1CCc1ccccc1 | – | inconclusive [inhibitor, single point]
27 | O=C(CN1CCCCC1)Nc1nnc(-c2ccccc2)s1 | – | inconclusive [inhibitor, partial curve]
28 | Cc1ccc(S(=O)(=O)N/N=C2/CCCCC2C2CCCCC2)cc1[N+](=O)[O-] (configuration not stated) | – | inconclusive [inhibitor, partial curve]
29 | COc1ccc(Cc2nc3ccc(C(=O)NCCc4cccc(C)n4)cc3o2)cc1 | – | inconclusive [inhibitor, single point]
30 | Cc1ccc(SCC(=O)OCC(=O)N(CC(C)C)c2c(N)n(Cc3ccccc3)c(=O)[nH]c2=O)cc1C | – | inconclusive [inhibitor, single point]
31 | O=C(O)C(CCC(C(=O)O)c1ccccc1)c1ccccc1 (configuration not stated) | inactive: -15% | –
32 | COc1cccc(-c2ccc3nnc(SCC(=O)Nc4ccc(NC(C)=O)cc4)n3n2)c1 | – | inconclusive [inhibitor, partial curve]
33 | COc1ccccc1N1CCN(S(=O)(=O)CCNC(=O)/C=C/c2ccc3c(c2)OCO3)CC1 | – | inconclusive [inhibitor, partial curve, poor fit]
34 | CN(C)c1ccc(/C=C/c2ccc3cc(F)ccc3n2)cc1 | – | active: 10 µM
35 | CCCCC(C(=O)NC1CCCC1)N(Cc1ccccc1)C(=O)c1snc(C(N)=O)c1N (configuration not stated) | – | active: 20.6 µM
36 | Cc1ccccc1OCC(=O)NCCCNC(=O)c1cccnc1 | inactive: -5.47% | –
37 | O=C(Cn1cc(SCc2cccc(Cl)c2)c2ccccc21)N1CCCCCC1 | – | inconclusive [inhibitor, single point]
38 | CCc1ccc(Oc2c(C(F)(F)F)oc3c(CN4CCN(C)CC4)c(O)ccc3c2=O)cc1 | – | active: 25.9 µM
39 | COc1ccc(-c2cn(Cc3ccc(C(=O)NCc4ccc(C)cc4)cc3)c(C(C)N)n2)cc1 (configuration not stated) | – | inconclusive [inhibitor, single point]
40 | Cc1nc(Cc2nnc(SCC(=O)N3CCN(c4ccc(F)cc4)CC3)o2)cs1 | – | inconclusive [inhibitor, single point]
41 | COc1ccccc1CN(C)CC(=O)Nc1cccc2ccccc12 | – | active: 25.9 µM
42 | Cc1[nH]n(-c2ccccc2)c(=O)c1N=Nc1cccc([N+](=O)[O-])c1 | – | inconclusive [inhibitor, single point]
43 | CCOc1ccccc1NC(=O)c1c(NC(=O)c2ccccc2)sc2c1CCCC2 | – | inconclusive [inhibitor, single point]
44 | COc1cc(C(C)=O)ccc1COc1ccc(C(=O)OC(C)C(=O)NC(N)=O)cc1OC (configuration not stated) | – | inconclusive [inhibitor, partial curve, poor fit]
45 | Cc1ccc2cc(C#N)c(N3CCCN(S(=O)(=O)c4ccccc4)CC3)nc2c1C | inactive: -13% | –
46 | COc1c2ccccc2nc2ccccc12 | – | inconclusive [inhibitor, single point]

Row | SMILES | activity change, negative = growth inhibition | Potency
47 | CCOc1ccccc1CNC(=O)c1cnc2sc(N3CCCCCC3)nn2c1=O | – | inconclusive [inhibitor, single point]
48 | CC1CC(C)CN(S(=O)(=O)c2ccc3c(c2)oc(=O)n3CC(=O)NCCCOC(C)C)C1 (configuration not stated) | – | inconclusive [inhibitor, single point]
49 | CC(C)C(C=Cc1ccccc1)=NNS(=O)(=O)c1ccccc1 | inactive: -14.5% | –
50 | COc1ccccc1CN(Cc1ccco1)c1cnc(S(C)(=O)=O)nc1C(=O)Nc1cc(C)ccc1C | – | inconclusive [inhibitor, single point]
51 | Cc1nn(Cc2cccc(C(=O)Nc3ccn(Cc4ccccc4F)n3)c2)c(C)c1[N+](=O)[O-] | – | inconclusive [inhibitor, partial curve, poor fit]
52 | CCOc1ccc(Nc2nc3cc(S(=O)(=O)CC)ccc3o2)cc1 | – | inconclusive [inhibitor, single point]
53 | CCOC(=O)N1CCN(S(=O)(=O)c2ccc(C(=O)Nc3sc4c(c3C(=O)OC)CCN(C)C4)cc2)CC1 | – | inconclusive [inhibitor, single point]
54 | O=C(NCCc1csc2nc(-c3ccc(F)cc3)nn12)c1cccc(C(F)(F)F)c1 | – | inconclusive [inhibitor, single point]
55 | Cc1c(C(=O)Nc2ccc(F)cc2)c2ccccn2c1CCc1ccncc1 | – | inconclusive [inhibitor, single point]
56 | CCc1ccc(S(=O)(=O)NCCc2csc3nc(-c4ccccc4)nn23)s1 | – | active: 23.1 µM
57 | Cc1cc(OCCCCNC(C)C)cc(C(C)C)c1 | – | inconclusive [inhibitor, single point]
58 | COc1ccc(C(C)(O)c2nc(/C=C/c3ccccc3)cs2)cc1 (configuration not stated) | – | inconclusive [inhibitor, single point]
59 | O=C(CC1C(=O)NCCN1C(=O)Nc1ccc(F)cc1F)Nc1ccc(F)cc1 (configuration not stated) | inactive: -23.6% | –
60 | COC(=O)COc1ccc(-c2ccccc2)cc1C=O | – | active: 23.1 µM
61 | CCO[C@H]1OC(C(=O)N2CCN(Cc3ccccc3)CC2)=C[C@@H](C2CCCCC2)[C@@H]1CCCO | – | active: 9.2 µM
62 | C=CCc1cc(Cl)ccc1OCCOCCN(C)C | – | inconclusive [inhibitor, single point]
63 | O=C(/C=C/c1ccc(OC(F)F)cc1)OCC(=O)N1CCC(c2ccccc2)=N1 | – | inconclusive [inhibitor, single point]
64 | Cc1cc(=O)oc2c(C)c(OCC(=O)N3CCN(c4ccc(F)cc4)CC3)ccc12 | – | active: 23.1 µM
65 | CCCn1nnc(NC(=S)NC(=O)C(C)(C)C)n1 | – | inconclusive [inhibitor, partial curve]
66 | Cc1n(C)c2cc(Cl)ccc2[n+]1Cc1ccccc1 | – | active: 23.1 µM
67 | COc1cccc(C(=O)NCc2nc(-c3ccccc3)no2)c1OC | – | inconclusive [inhibitor, partial curve]
